# Experimental data as given in paper PMC4336329 (PLoS ONE, 2015).
# Out of some 310,000 compounds screened, about 2,200 (0.71%) showed an effect of 50% or more. The effect is printed as a negative number. This is one part of the list.
# Molecular target: human ether-à-go-go-related gene (hERG) potassium channel (human, UniProt Q12809)
# Assay: primary screen, population patch clamp on CHO cells stably expressing hERG
# Sequence of human ether-à-go-go-related gene (hERG) potassium channel (Q12809 whole entry, looked up): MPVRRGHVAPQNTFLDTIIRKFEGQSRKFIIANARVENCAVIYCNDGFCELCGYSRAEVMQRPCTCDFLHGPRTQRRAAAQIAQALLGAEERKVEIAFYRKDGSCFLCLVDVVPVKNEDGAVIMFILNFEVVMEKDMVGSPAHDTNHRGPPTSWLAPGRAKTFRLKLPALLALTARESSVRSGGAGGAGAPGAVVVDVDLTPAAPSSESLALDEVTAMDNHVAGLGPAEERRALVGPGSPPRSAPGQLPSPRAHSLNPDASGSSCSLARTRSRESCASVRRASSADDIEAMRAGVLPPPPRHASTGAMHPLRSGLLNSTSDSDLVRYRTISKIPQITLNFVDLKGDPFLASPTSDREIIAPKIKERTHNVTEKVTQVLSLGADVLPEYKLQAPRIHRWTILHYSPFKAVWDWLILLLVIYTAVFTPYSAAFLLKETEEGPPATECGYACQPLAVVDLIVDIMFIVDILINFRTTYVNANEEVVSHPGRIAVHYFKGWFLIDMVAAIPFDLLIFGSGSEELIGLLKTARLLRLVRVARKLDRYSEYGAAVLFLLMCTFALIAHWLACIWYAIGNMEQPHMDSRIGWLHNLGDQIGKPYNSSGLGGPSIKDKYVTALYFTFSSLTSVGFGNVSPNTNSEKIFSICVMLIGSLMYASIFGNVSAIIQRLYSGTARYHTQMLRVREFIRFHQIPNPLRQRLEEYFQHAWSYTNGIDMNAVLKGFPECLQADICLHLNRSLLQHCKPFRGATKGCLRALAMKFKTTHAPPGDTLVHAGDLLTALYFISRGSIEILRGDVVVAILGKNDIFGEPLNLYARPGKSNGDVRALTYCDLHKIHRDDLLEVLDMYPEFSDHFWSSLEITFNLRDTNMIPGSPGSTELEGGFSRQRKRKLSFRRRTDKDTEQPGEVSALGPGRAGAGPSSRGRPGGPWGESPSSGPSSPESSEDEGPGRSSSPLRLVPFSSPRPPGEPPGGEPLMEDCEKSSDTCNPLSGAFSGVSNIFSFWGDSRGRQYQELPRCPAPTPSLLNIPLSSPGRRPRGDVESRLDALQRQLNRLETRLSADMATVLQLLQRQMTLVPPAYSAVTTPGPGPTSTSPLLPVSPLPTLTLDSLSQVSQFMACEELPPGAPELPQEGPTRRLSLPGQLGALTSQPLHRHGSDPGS
row,SMILES,"hERG current change (%, negative = inhibition) at 1uM"
1,O=C(N/N=C/c1cn(-c2cccs2)nc1-c1ccccc1)c1ccc(O)cc1,15.2%
2,Cc1c(C(=O)NCCSCc2ccc(F)cc2)cnn1-c1ccc(Cl)cc1,-8.88%
3,COc1cccc(/C=C/C(=O)c2cccc([N+](=O)[O-])c2)c1OC,-0.655%
4,COc1ccc(NS(=O)(=O)c2ccc(Br)s2)cc1OC,9.55%
5,CN(C)NC(=S)Nc1cccc(Cl)c1,11.8%
6,O=c1[nH]cnc2scc(-c3cccs3)c12,8.1%
7,COc1cc(/C=C/C(=O)NC(C)C)ccc1OCc1ccccc1,12.2%
8,CC1=NC(C)(C)Cc2c(C)cccc21.Cl,10.3%
9,COc1ccc(CCNC(=O)COc2ccc(S(=O)(=O)NC(C)C)cc2Cl)cc1OC,5.95%
10,Cn1c(=O)[nH]c(=O)c2c1nc(SCC(=O)[O-])n2CCOc1ccccc1.[Na+],15.7%
11,CCN(CC)S(=O)(=O)c1cccc(NC(=O)COC(=O)CCc2nc3ccccc3s2)c1,14.5%
12,CCOC(=O)/C(C#N)=N/Nc1c(S(=O)(=O)Cc2ccco2)csc1C(=O)OC,12%
13,COc1ccc(Cl)cc1NC(=O)CSc1nncn1-c1cccnc1,6.23%
14,COc1ccc(-n2nc(C(=O)NCC(=O)NCC3CCCO3)c3ccccc3c2=O)cc1 (stereo not drawn),10.5%
15,CC1CCCN(C(=O)CCS(=O)(=O)Cc2ccccc2)C1 (stereo not drawn),9.84%
16,Cc1c(NC(=O)Cc2ccccc2)cccc1C(=O)NN1C(=O)c2ccccc2C1=O,-1.4%
17,C=C(C)CSc1nnc([C@@H]2CCCN2)o1.Cl,17.6%
18,COc1ccccc1NS(=O)(=O)c1ccc(C(=O)NCCCN2CCCC2=O)cc1,8.88%
19,CCCC(c1nnnn1C1CCCC1)N1CCN(C(=O)c2ccco2)CC1.Cl (stereo not drawn),-11.7%

row,SMILES,"hERG current change (%, negative = inhibition) at 1uM"
1,COc1ccccc1NS(=O)(=O)c1ccc(O)c(NC(=S)NCC2CCCO2)c1 (stereo not drawn),11.1%
2,C[C@H](NC(=O)N1CCn2c1nc1ccccc12)C(=O)NC1CC1,16.6%
3,CCn1c(CCCOc2ccc(Cl)cc2Cl)nnc1SCC(=O)Nc1cc(F)ccc1C,10.7%
4,CC(=O)NCCC(=O)Nc1nc2c(ccc3ccccc32)s1,2.61%
5,O=C(OCC(=O)c1c[nH]c2ccccc12)c1cccc(S(=O)(=O)N2CCCCCC2)c1,9.14%
6,O=C(O)CC(c1ccccc1)n1cccc1 (stereo not drawn),9.23%
7,COc1c(Cl)cc(-c2noc(C)c2C(=O)NCc2ccc3c(c2)OCO3)cc1Cl,10.5%
8,O=S(=O)(c1cccs1)N1CCN(c2cccc(Cl)c2)CC1,7.08%
9,CCOC(=O)C1CCN(C(=O)COC(=O)c2cc([N+](=O)[O-])ccc2N2CCOCC2)CC1,1.29%
10,O=C(Nc1ccc(C(F)(F)F)cc1)C1CCN(S(=O)(=O)c2ccc(N3CCCC3=O)cc2)CC1,16.5%
11,Nc1nc(N)nc(-c2ccccn2)n1,11.8%
12,Cc1ccc(N2C(=O)c3ccccc3C2Nc2ccccc2F)nc1 (stereo not drawn),11.4%
13,Cc1cc(C)c(S(=O)(=O)N(C)CC(=O)N2CCCCC2)c(C)c1,2.58%
14,O=C(Cc1cccs1)Nc1nnc(SCc2cccc3ccccc23)s1,-3.03%
15,CCn1cc(/C=N\NC(=O)c2ccc(Cl)cc2)cn1,6.62%
16,CS(=O)(=O)c1ccc2nc(NC(=O)C3CC(=O)N(c4ccc(F)cc4)C3)sc2c1 (stereo not drawn),13.5%
17,Cc1nn(-c2ccccc2)c(N2CCCC2)c1/C=C1\N=C(c2ccc(F)cc2)OC1=O,8.64%
18,CC(=O)c1c(C)oc2ccc(N(C(C)=O)S(=O)(=O)c3cccc([N+](=O)[O-])c3)cc12,15.4%
19,CC1CCN(C(=O)CN2C(=O)C(C)(C)Oc3ccc(C(=O)NC(C)C)cc32)CC1,6.29%

row,SMILES,"hERG current change (%, negative = inhibition) at 1uM"
1,O=C(CNC(=O)c1ccc([N+](=O)[O-])cc1)c1ccccc1,0.298%
2,C/C=C(\C)CN1CCC(Oc2ccc(C(=O)NCc3ccccn3)cc2)CC1,14.8%
3,Cc1ccc(N=C/C(C(=O)C(F)(F)F)=C(\O)c2cccs2)cc1,17.4%
4,CCOC(=O)CC1ON(C)C(=O)N1c1ccc(Cl)cc1Cl (stereo not drawn),-1.26%
5,COC(=O)c1ccc(COc2ccccc2/C=N/NC(=O)c2cccnc2)cc1,13.1%
6,CC(C)(C)CC(=O)O/N=C(\N)c1ccncc1,10.1%
7,O=C(NC1CCCCCCC1)C1=COCCO1,10.1%
8,NC(=O)C1CCN(c2cc(Cl)ccc2[N+](=O)[O-])CC1,12.6%
9,COc1cccc2c1OC1(C)CC2NC(=O)N1c1cccc(C(=O)Nc2ccc3c(c2)OCCO3)c1 (stereo not drawn),11%
10,Cc1nc2ccccc2c(=O)n1CC(=O)N1CCOCC1,6.48%
11,CC(C)(C)C(=O)CSc1ncccn1,14%
12,O=C(O)C[C@H]1c2cc(C(F)(F)F)ccc2S(=O)(=O)N1C1CCCCC1,22.5%
13,Cc1cc(C(=O)OCC(=O)c2ccc(Cl)c([N+](=O)[O-])c2)c2cccc(C)c2n1,9.57%
14,COC(=O)c1sccc1NC(=O)c1ccco1,15.6%
15,COCCNS(=O)(=O)c1ccc(SC)cc1,13.1%
16,C=CCn1c(COc2ccccc2)nc2ccccc21,-2.04%
17,CCOc1ccc(C(=O)NCc2cccs2)cc1,5%
18,COC(=O)C(C(=O)OC)=C(/C=C/N(C)C)N(C)C,7.2%
19,CCc1c(O)nc(SCC(=O)c2ccccc2)n(-c2ccccc2)c1=O,19.7%
